“And” between values parts separate entries of the source, which are not always exact repeats. Equal entries are not always repeated. Out of some 400,000 compounds screened, about 2,200 (0.55%) were called active. The shares of active, inactive and inconclusive entries below differ from those in the screen. Calls follow the shape of the dose curve; as a rule, active = well fitted inhibition curve with a large enough effect; inconclusive = small, poorly fitted or top-dose-only effect, or another doubt; inactive = no such curve, though single readings can be large or run the other way. Potencies beside an inconclusive call are fits to weak or partial responses and may not hold up.
The compounds below were run against DNA polymerase kappa (Homo sapiens) (UniProt Q9UBT6) (assay: qHTS for Inhibitors of Polymerase Kappa). Details: purified Pol kappa, fluorescent DNA synthesis assay, 10 min; series mostly up to 107 µM; activity, negative = inhibition: at the top concentration.
UniProt Q9UBT6, sequence (Q9UBT6 whole entry, looked up): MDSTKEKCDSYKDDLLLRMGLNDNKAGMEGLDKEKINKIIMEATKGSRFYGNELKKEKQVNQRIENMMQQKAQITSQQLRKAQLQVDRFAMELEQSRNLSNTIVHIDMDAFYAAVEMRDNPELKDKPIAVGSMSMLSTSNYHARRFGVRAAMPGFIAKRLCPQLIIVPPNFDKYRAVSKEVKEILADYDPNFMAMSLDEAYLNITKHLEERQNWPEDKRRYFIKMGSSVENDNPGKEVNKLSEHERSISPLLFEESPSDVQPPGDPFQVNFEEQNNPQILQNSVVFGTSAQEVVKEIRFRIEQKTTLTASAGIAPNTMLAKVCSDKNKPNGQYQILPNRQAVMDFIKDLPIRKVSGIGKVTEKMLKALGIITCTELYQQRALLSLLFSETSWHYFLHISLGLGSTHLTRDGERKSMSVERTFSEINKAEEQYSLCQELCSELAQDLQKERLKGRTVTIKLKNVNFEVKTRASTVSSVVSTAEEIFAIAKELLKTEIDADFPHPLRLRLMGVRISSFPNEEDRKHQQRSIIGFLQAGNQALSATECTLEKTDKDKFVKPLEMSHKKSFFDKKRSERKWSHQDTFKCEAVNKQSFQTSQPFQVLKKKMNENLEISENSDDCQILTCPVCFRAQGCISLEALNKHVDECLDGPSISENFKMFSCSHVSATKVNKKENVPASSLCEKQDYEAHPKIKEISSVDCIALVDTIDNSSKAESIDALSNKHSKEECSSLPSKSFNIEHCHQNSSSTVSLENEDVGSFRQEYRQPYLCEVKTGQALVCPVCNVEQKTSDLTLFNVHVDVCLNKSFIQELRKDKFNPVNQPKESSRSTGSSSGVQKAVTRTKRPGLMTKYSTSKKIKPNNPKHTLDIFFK
In short: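 Enzyme at 10 nM met test compounds for 15 min at room temperature. Substrate addition (50 nM final) began the reaction, which was monitored by fluorescence at 0 and 10 min.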
`COc1ccc(C(C)=O)cc1CSc1nc2cc(C(=O)O)ccc2c(=O)n1Cc1ccccc1` was tested, and the “activity, negative = inhibition” value was inactive: -23.6%.
With `COc1cc2c[n+](C)c3c4ccccc4ccc3c2cc1OC` the Potency was active: 31.6 µM.
In the case of `O=C1N/C(=C/c2ccco2)C(=O)N1Cc1ccccc1F`, the Potency is reported as inconclusive: 79.4 µM [inhibitor, single point].
In the case of `O=C(Cc1ccccc1)NN=Cc1ccccc1`, the Potency is reported as inconclusive: 89.1 µM [inhibitor, single point].
For `O=C(N/N=C/c1ccoc1)c1cc(Br)ccc1O`, the Potency was inconclusive: 89.1 µM [inhibitor, single point].
`COc1ccc(NC(=O)Cn2ncc(Cl)c(Cl)c2=O)cc1S(=O)(=O)N1CCOCC1` was tested, and the Potency was active: 44.7 µM.
With `NC(=O)c1cc[n+](CC2=C(C(=O)O)N3C(=O)[C@@H](NC(=O)[C@@H](c4ccccc4)S(=O)(=O)[O-])[C@H]3SC2)cc1` the Potency was active: 25.1 µM and active: 26.7 µM.
For `CC1CCC(NC(=O)c2ccc(CS(=O)(=O)c3cccc(C(F)(F)F)c3)o2)CC1` (configuration not stated), the “activity, negative = inhibition” value was inactive: 2.02%.
In the case of `CCn1c(C)nc2cc(C(=O)N/N=C/c3cccc(O)c3O)ccc21`, the Potency is reported as inconclusive: 89.1 µM [inhibitor, partial curve, poor fit].
With `COc1cccc(Cn2c(=O)c(-c3ccc(Cl)cc3)nc3cnc(OC)nc32)c1` the “activity, negative = inhibition” value was inactive: -3.11% [at 60.1 µM].
`COc1cccc(N2CC(C(=O)Nc3nnc(SCC(=O)NC4CCCC4)s3)CC2=O)c1` (configuration not stated) was tested, and the “activity, negative = inhibition” value was inactive: -12.6%.
`Cc1ccc(NC(=O)/C(C#N)=C/c2ccc(-c3ccc(Cl)c(C(=O)O)c3)o2)cc1C` was tested, and the Potency was inconclusive: 89.1 µM [inhibitor, partial curve, poor fit].
With `Cc1nnc(SCC2=C(C(=O)O)N3C(=O)C(NC(=O)c4cccc(F)c4F)C3SC2)s1` (configuration not stated) the Potency was inconclusive: 56.2 µM [inhibitor, partial curve, poor fit].
With `O=C(NCC1CCCO1)c1nn2c(C(F)(F)F)cc(-c3ccc(Br)o3)nc2c1Br` (configuration not stated) the Potency was inconclusive: 89.1 µM [inhibitor, partial curve, poor fit].
`Cc1ccc2nc(-c3ccc(N=Nc4cc(S(=O)(=O)O)c5ccccc5c4O)cc3)sc2c1S(=O)(=O)O` was tested, and the Potency was active: 20 µM.
With `CC(=O)Nc1ccc2nc(-c3ccc(Br)o3)[nH]c2c1` the Potency was inconclusive: 79.4 µM [inhibitor, partial curve, poor fit].
For `COc1cc2nc(NCCCN3CCN(C)CC3)n3nc(-c4ccccc4)nc3c2cc1OC`, the Potency was inconclusive: 44.7 µM [inhibitor, partial curve].
For `CCOC(=O)CC(NC(=O)CCc1c(C)nc2c(-c3ccccc3)c(C)nn2c1C)c1ccc(OC(C)C)cc1` (configuration not stated), the Potency was inconclusive: 89.1 µM [inhibitor, single point].
For `CCCC(=O)Nc1cccc2c1CCCC2`, the Potency was inconclusive: 89.1 µM [inhibitor, single point].
`O=C1Nc2ccccc2Oc2cc(Oc3ccccc3)ccc21` was tested, and the Potency was inconclusive: 79.4 µM [inhibitor, single point] and inconclusive: 89.1 µM [inhibitor, single point].
`CCn1c(SCC(=O)c2ccc(O)c(O)c2)nnc1-c1ccccc1OC` was tested, and the Potency was active: 20 µM.
With `O=C(Nc1cccc(C(=O)O)c1)/C(=C/c1cccc([N+](=O)[O-])c1)NC(=O)c1cccc(Br)c1` the “activity, negative = inhibition” value was inactive: 1.29%.
With `Cc1cc(O)c(-c2cc(O)c(C)cc2O)cc1O` the Potency was inconclusive: 89.1 µM [inhibitor, single point].
`COc1cc(/C=C/C=C2/CC/C(=C/C=C/c3ccc(O)c(OC)c3)C2=O)ccc1O` was tested, and the Potency was active: 14.1 µM.
In the case of `O=C(NCC1CCCO1)c1cc(-c2ccco2)nc2ccccc12` (configuration not stated), the Potency is reported as inconclusive: 89.1 µM [inhibitor, single point].
`O=C(CSc1nnc(SCC(=O)c2ccco2)s1)c1ccco1` was tested, and the Potency was inconclusive: 89.1 µM [inhibitor, partial curve, poor fit].
For `CCCCCCOc1ccc(CC(=O)O)cc1`, the “activity, negative = inhibition” value was inactive: 1.91%.
`CC1=C(c2ccc(C(C)C)cc2)S(=O)(=O)N=C1N1CCN(C(=O)c2ccco2)CC1` was tested, and the Potency was inconclusive: 79.4 µM [inhibitor, partial curve, poor fit].
In the case of `COc1cc(-c2nnc(SCC(=O)NC(C)C)o2)cc(OC)c1OC`, the Potency is reported as inconclusive: 89.1 µM [inhibitor, single point].
`Cc1ccc(Cl)cc1NC(=O)/C(C#N)=C\c1cn(Cc2ccc(F)cc2)c2ccccc12` was tested, and the Potency was inconclusive: 100 µM [inhibitor, partial curve, poor fit].
`O=C1c2ccccc2C(=O)N1/N=C/c1ccc(O)c(O)c1` was tested, and the Potency was inconclusive: 79.4 µM [inhibitor, partial curve].
For `O=C(O)CCN1C(=O)/C(=C/c2ccc(-c3nc4ccccc4s3)o2)SC1=S`, the Potency was inconclusive: 89.1 µM [inhibitor, single point].
`Cc1ccc(C2C(/C=C3/SC(=S)NC3=O)=C(c3cccs3)Oc3ccccc32)cc1` (configuration not stated) was tested, and the Potency was inconclusive: 89.1 µM [inhibitor, single point].
With `Cc1cc(O)c(C=O)c2c1C(=O)Oc1c(C)c(O)c3c(c1O2)C(O)OC3=O` (configuration not stated) the Potency was active: 10 µM.
With `O=C(O)c1ccc(N/N=C/C2=C(N3CCOCC3)C(=C\c3ccccc3)/CC2)cc1` the Potency was active: 31.6 µM.
In the case of `CCOC(=O)C(C)C(C)=O` (configuration not stated), the Potency is reported as inconclusive: 100 µM [inhibitor, partial curve, poor fit].
For `O=C(CSc1nc2sc3c(c2c(=O)n1-c1ccccc1)CCCC3)NCc1ccco1`, the “activity, negative = inhibition” value was inactive: -22.4%.
In the case of `Cc1ccc(Nc2ncnc3nc[nH]c23)cc1Cl`, the Potency is reported as inconclusive: 100 µM [inhibitor, partial curve, poor fit].
In the case of `COc1ccc(C2CC(=O)c3c([nH]c(C(=O)OCCOc4ccccc4)c3C)C2)cc1OC` (configuration not stated), the Potency is reported as inconclusive: 100 µM [inhibitor, single point].
For `CCNc1ccc(Br)cc(C(=O)/C=C/c2c(Cl)cccc2Cl)c1=O`, the Potency was inconclusive: 79.4 µM [inhibitor, single point].
For `CCc1ccc(S(=O)(=O)c2cnc(SCC(=O)Nc3ccc(OC)cc3OC)[nH]c2=O)cc1`, the “activity, negative = inhibition” value was inactive: -12.9%.
In the case of `Cc1ccccc1NC1=C/C(=N\S(=O)(=O)c2cccs2)c2ccccc2C1=O`, the “activity, negative = inhibition” value is reported as inactive: -20.7%.
% is scaled to controls: 0 for no effect and ±100 for the full control effect; potency is read from the fitted curve at half-maximal effect; tags tell the direction and shape of the fitted curve.
